Experimental data from publication PMC12136788.
Changes are numbered by the printed parent chain. The list shows a part of the results.

T1: UNK ZnF1-3 (human, UniProt Q9C0B0 31-174)
T1 sequence: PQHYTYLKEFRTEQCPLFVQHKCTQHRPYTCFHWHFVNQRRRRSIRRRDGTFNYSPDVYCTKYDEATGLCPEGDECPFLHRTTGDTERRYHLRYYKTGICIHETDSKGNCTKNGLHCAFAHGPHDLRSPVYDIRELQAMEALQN

B1: chr19:8913615:8913616:-_ENSMUSG00000071658_ENSMUST00000096259|mus_hu|mus_mus_mus_hu_False|18_78 (ssRNA)
RNA: GGGAGUUCUACAGUCCGACGAUCAGGGUACCAAAACCUUCUGCCUGAAAUGGGUGCCCCACCCUGCAGGGAGUUGCAGCUGAAAGUAUCUGAUGCAGAAGCAGUGACUAUACGAAAGGUCACUAGAGGGGAGGGCCAGGCCAGCAACAGAGGAUUGAGCAUCA
B2: chr19:8913615:8913616:-_ENSMUSG00000071658_ENSMUST00000096259|mus_hu|mus_mus_mus_hu_False|18_48 (ssRNA)
RNA: B1 RNA with U64A, C66U, U90C, A92U, U93A
B3: chr11:68315578:68315579:+_ENSG00000110075_ENST00000393800|perfect_dup|FALSE|FALSE (ssRNA)
RNA: GGGAGUUCUACAGUCCGACGAUCUGGAGGUUCGAUACACGUCAGGAGCCUGAGCAACAAAUCCAUGAUAGCAGAAGUUCCUAUGUGCUUUAUAAUAAGGUCUACAAAAUCAUGCUUCUUCUUUAAGAAAUCCACAAUCUGUUCCAACAGAGGAUUGAGCAUCA
B4: chr2:216981417:216981418:+_ENSG00000079246_ENST00000392132|hu_hu|hu_hu_hu_mus_True|1_18 (ssRNA)
RNA: GGGAGUUCUACAGUCCGACGAUCCUGAUACUGGUCCUUGCCAGCAAGGGCAUUAUCAGUGCCAUCUGUGCCAUAGAGGACUAACGCAAUCUCAUCUUUGCUCUCCGAAAAUACCUGUCGCUGUACAAACAUAGUCAUCACCUUCAACAGAGGAUUGAGCAUCA
B5: 26743308_26743658_2015_CDS_ENSMUSG00000024921_ENSMUST00000025862|mouse|control|control (ssRNA)
RNA: GGGAGUUCUACAGUCCGACGAUCCUCCUCGUAGUCCGAUUCACUCUCUUCACUGUCAGAUCUGGGUGCAACUUCGUAACCAGGAUUCAUCUCCAGCCAGGCAUCCAGCUGACUUGCUUUGGGUGCUUCUGGUCCAAAGAGGACCAACAGAGGAUUGAGCAUCA
B6: chr14:76904430:76904431:+_ENSMUSG00000022010_ENSMUST00000022587|mus_mus|mus_mus_mus_hu_True|48_48 (ssRNA)
RNA: GGGAGUUCUACAGUCCGACGAUCUGCAGCCAAAAACACCCUCGUGGAAAAAAAGAGGGAACACCAGCAGCCUUGUAUAAGCUAGAUAAAACCGCCUGGCUUUCCGCAGCCCAGGGAGAAACAGAAAACGGCAGCCCUAAUUUACAACAGAGGAUUGAGCAUCA
B7: chr17:61432403:61432404:+_ENSG00000170921_ENST00000424789|hu_mus|FALSE|FALSE (ssRNA)
RNA: GGGAGUUCUACAGUCCGACGAUCCUUCAUAUUGCACUGGAGUAAAUAAACCUCAGAGAGCGAAACAGGAACGACUUUGUAGCUAGAACUCUUUAGCACUAGGUAGCCUUUCUCUAUGAGGUCAAAUGUGAGUUUCAGGUAUAGCAACAGAGGAUUGAGCAUCA
B8: 23884564_23898749_423_CDS_ENSMUSG00000026155_ENSMUST00000027339|mouse|control|control (ssRNA)
RNA: GGGAGUUCUACAGUCCGACGAUCUCGAAAGUUCUCUGGAAGAUUGGCUUCAUAAAGUAGUCUUGCUUUAGUAUUUCCCAUAUCUUGCAUGCACUGUAUCUGUUCUGGUGUCCAUUGGUCUAGGUUGACUGACUUGACUCUGGACAACAGAGGAUUGAGCAUCA
B9: 120564217_120564337_5200_3pUTR_ENSMUSG00000090100_ENSMUST00000028740|mouse|control|control (ssRNA)
RNA: GGGAGUUCUACAGUCCGACGAUCUUUAGAUGUCAACAGCAGCUAUAAACAAGAAUUCAGGCCUGAGUUUCUUCCCCUUGGACUGUGCUGGACUGACGCUUCCUGUGCAGAGGCACGGACUCCUCAUGUGCUUCCUACCUGCCCCAACAGAGGAUUGAGCAUCA
B10: chr17:65740002:65740003:+_ENSG00000130935_ENST00000581375|hu_hu|hu_hu_hu_mus_False|18_18 (ssRNA)
RNA: GGGAGUUCUACAGUCCGACGAUCAACAAAUCUUUCUUCCCUGGACGAACAGGAAGAUUCAUAUUAAAAAAAAUAUAUAUCCAUCAAGUUAGGUGUGGUGGCCACACCUUUACUCCCCACUUCAAUUGAGGUGGAUCUCUGAGUCAACAGAGGAUUGAGCAUCA
B11: 33708304_33708424_4120_3pUTR_ENSMUSG00000027677_ENSMUST00000099153|mouse|control|control (ssRNA)
RNA: GGGAGUUCUACAGUCCGACGAUCAACUCUGCUGUCUGGCUGCUCUUUGCUAUUUAGCAUCUCUUCUGGAGCCUCGUUUCUAUUACCCUCCCCACAACUGUCCUCCUUUUCAUACACACGCUCUCCCUGGUUUGUAUUUAACUGCAACAGAGGAUUGAGCAUCA
B12: chr14:21833301:21833302:-_ENSG00000092201_ENST00000216297|hu_mus|FALSE|FALSE (ssRNA)
RNA: GGGAGUUCUACAGUCCGACGAUCAUUGAUGCUAAAAACCAUCCCUUUCUUUAGCUUGUACUGAUUUUUACUAUUGAUUACUAGAGAGCCUUCACGGAAUUCAAUUCCCAUCCCAAAUCCUAGAUUCUUUGUAAUUUUGUUCAGCAACAGAGGAUUGAGCAUCA
B13: chr13:115030651:115030652:+_ENSG00000130177_ENST00000356221|hu_hu|FALSE|FALSE (ssRNA)
RNA: GGGAGUUCUACAGUCCGACGAUCAAUGUACAUUUCGAUGCAAUGACCAAGCAUUGUAACAGAAAAUGUAUCAUCUCGCCUAAGACCAAGGGCUGUGUGGAAGUAGUCCACAGCAUUUUCAAAGUUGCCCAUCAGACUGUGGAUCAACAGAGGAUUGAGCAUCA
B14: 24049677_24049797_5119_CDS_ENSMUSG00000031540_ENSMUST00000044331|mouse|control|control (ssRNA)
RNA: GGGAGUUCUACAGUCCGACGAUCGGAAUCAUAGCUGCUUGGGUUCUCAUAGUUCUCUGUGGUACUCUCGAUGCUGCCCAGAUCACUGAAGCCGCUGUCUACCACCUGCUGAGAGUGGUCUGAUACGGAAGGCACAUCCAUCAUCAACAGAGGAUUGAGCAUCA
B15: chr2:179763710:179763711:+_ENSMUSG00000039108_ENSMUST00000058764|mus_mus|motif|central (ssRNA)
RNA: GGGAGUUCUACAGUCCGACGAUCCUGAGGUGGCUCUGAGGACAUGUCAAGCUCUGAAACAGGCUGUGGAGAUGGAGAAGAACGGGGGCUGGAAGCAGCGGCUGAGGCUGGAGGGCUUACCAACUUCUCUAGACCUAAGGAAGCCAACAGAGGAUUGAGCAUCA
B16: chr4:160235802:160235803:+_ENSG00000109756_ENST00000264431|hu_mus|FALSE|FALSE (ssRNA)
RNA: GGGAGUUCUACAGUCCGACGAUCGCUCAUCAGAGGGUCUGAUGCUCUCUCGAUGUCUUCCUCAUCAUCGUCAUCCUCAGAGUCAACCGCCGUCUCUGGCAGUCCACUCAGGUCCAUGUCACCGGCCUCGCUCUCCGUGGCCUGCAACAGAGGAUUGAGCAUCA
B17: chr17:65740002:65740003:+_ENSG00000130935_ENST00000581375|hu_hu|hu_hu_hu_mus_False|8_98 (ssRNA)
RNA: GGGAGUUCUACAGUCCGACGAUCAACAAAUCUUUCUCUGGAUGAAGAACAGGAAGAUUCAUAUUAAAAAAAAUAUAUAUCCAUCAAGUUAGGUGUGGUGGCCACACCUUUACUCCCAGCACUUUGGGAAUAUAAUCUCUGAGUCAACAGAGGAUUGAGCAUCA
B18: 158576357_158589173_189_CDS_ENSG00000122335_ENST00000367104|human|control|control (ssRNA)
RNA: GGGAGUUCUACAGUCCGACGAUCUGAUCCAGUAAACUUUAUUAUAUUUCUGAUAUCUCUCCAGUGUGUGCCACUUUUUGGUGGGGAAGUAGAGGUUCCUAUUCUUCUGCAACAGAUGACGCAAUAAGCAGCCAGGGACAUUCUCAACAGAGGAUUGAGCAUCA
B19: chr3:176740097:176740098:-_ENSG00000177565_ENST00000430069|hu_mus|hu_hu_hu_mus_True|8_108 (ssRNA)
RNA: GGGAGUUCUACAGUCCGACGAUCUGUUUUUUACACCACAAAAGGAGGCACUUUCAGUAUCUGCAAAAGGUGUUUAGUCCUAAAACAUACUCACCUAGAGGAUAACUCAGGAAAACAAUCUGUUACACUAGUAUCUAUACUCCACAACAGAGGAUUGAGCAUCA
B20: 42175435_42175555_2497_3pUTR_ENSMUSG00000061080_ENSMUST00000099761|mouse|control|control (ssRNA)
RNA: GGGAGUUCUACAGUCCGACGAUCUGGGGCUCAGCCUUUAUAAAGCUAUGAAACUGAUGGAUUCUCCAGGCUUGCACACUGAGAGUGAAAUCAGCGACCAUCUUCCUCCCCUAGGUGAUAUUAUGCAGGCCACGGGUCUGUUCCCAACAGAGGAUUGAGCAUCA
B21: 125327386_125328085_3497_3pUTR_ENSMUSG00000030655_ENSMUST00000032891|mouse|control|control (ssRNA)
RNA: GGGAGUUCUACAGUCCGACGAUCAGUUACUUCCAAUUCACUCCCCUGAGUUAGACUAUUUGUUUUCAUUUCAGUAAGUAAGUCAAAGCCGUGCCUCACUGUCACUGCAGGCUGACCUGCCAACAAUCCAACCCUCAUGAUGGACAACAGAGGAUUGAGCAUCA
B22: chr2:104430793:104430794:+_ENSMUSG00000027176_ENSMUST00000028599|mus_mus|FALSE|FALSE (ssRNA)
RNA: GGGAGUUCUACAGUCCGACGAUCCGUCUCCUGACAUGGCCUCGGGGGACUACAACGUACGCACCAGCCGGCAAAGGGAAGCUAGAAAAGGAAAAUUAAACUAAAGGCAAACCCCACCAAAACCAGGAACACUACCCCUGUCCCCAACAGAGGAUUGAGCAUCA

target: T1, UNK ZnF1-3; experiment: nsRBNS (natural sequence RNA bind-n-seq); RBNS binding buffer (assumed for nsRBNS): 25 mM Tris pH 7.5, 150 mM KCl, 3 mM MgCl2, 0.01% Triton X-100, 500 ug/ml BSA, 20 U/ml SUPERase-In, 4 C; UNK is unkempt and MSI1 is Musashi-1; names of the RNAs are library labels; protein concentration not given here; high values mean tight binding

Point of comparison: B3, binding signal 1.38 enrichment R. Against it:
- B1 — lower, 1.33 enrichment R
- B2 — higher, 1.89 enrichment R
- B4 — lower, 0.82 enrichment R
- B5 — lower, 0.781 enrichment R
- B6 — higher, 2.18 enrichment R
- B7 — lower, 1.07 enrichment R
- B8 — lower, 0.689 enrichment R
- B9 — lower, 1 enrichment R
- B10 — lower, 0.736 enrichment R
- B11 — lower, 0.63 enrichment R
- B12 — lower, 0.818 enrichment R
- B13 — lower, 0.745 enrichment R
- B14 — lower, 0.589 enrichment R
- B15 — higher, 1.91 enrichment R
- B16 — lower, 0.414 enrichment R
- B17 — higher, 1.68 enrichment R
- B18 — lower, 1.24 enrichment R
- B19 — lower, 0.756 enrichment R
- B20 — lower, 1.14 enrichment R
- B21 — lower, 0.4 enrichment R
- B22 — higher, 1.98 enrichment R
